# Inconclusive means that the source gave no clear call. Such entries were picked first, then a sample of the others. Where the call is inconclusive, the potency comes from a doubtful curve fit. Active and inactive are the calls of the source. The call rests on the fitted dose curve; in most records, active means well fitted curve in the direction sought with a large enough effect in the repeat runs; inconclusive means weak or mixed curves; inactive means no such curve, though single readings can be large; an effect the other way counts as inactive or inconclusive.
# Assay: qHTS assay for small molecule agonists of the antioxidant response element (ARE) signaling pathway measured by Nrf2-dependant transcriptional activity (AID 720636); on activation: % of control where 0% means no effect
# Conditions: ARE-luc HepG2, Nrf2 luciferase reporter, 16 h; series mostly up to 92.4 µM; activation: at the top concentration
# Summary of the method: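 Nrf2-dependent transcription read as ONE-Glo luciferase signal from ARE-luc HepG2 reporter cells after 16 hr compound treatment at 37 C, 5% CO2, in assay medium with 1% dialyzed FBS.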
# Potency means the concentration at half of the fitted maximal effect; tags describe the fitted curve by direction and shape.
Compound,activation,Potency
CC(C)S,inactive: -0.0064%,–
Cc1ccc2ccc3cccc4ccc1c2c34,–,"inconclusive: 3.35 µM [activator, partial curve, poor fit]"
CCCCCCCCC1CO1 (centres undefined),inactive: -0.743%,–

# Assay: qHTS assay for small molecule antagonists of the retinoid-related orphan receptor gamma (ROR-gamma) signaling pathway - cell viability counter screen (AID 720652);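 further: compound exposure lasted 16 hr before ATP read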;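 on activity change, negative = cytotoxicity: CHO reporter cells with doxycycline-induced ROR-gamma expression; on the % scale 0 is the no-effect control and ±100 the full control effect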
# Conditions: RORgamma reporter cell line viability counter screen; series mostly up to 92.2 µM; activity change, negative = cytotoxicity: at the top concentration
# Summary of the method: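 Cytotoxicity is quantified via intracellular ATP (CellTiter-Glo luminescence) in doxycycline-induced CHO ROR response element-luciferase reporter cells treated with compound for 16 hr at 37 C, 5% CO2.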
Compound,"activity change, negative = cytotoxicity",Potency
CCCCOC(=O)COc1ccc(Cl)cc1Cl,inactive: -0.0015%,–
Cc1ccc2ccccc2c1[N+](=O)[O-],–,"inconclusive: 66.8 µM [rising, partial curve, poor fit]"
CCCCCCc1ccc(-c2ccc(C#N)cc2)cc1,–,"inconclusive: 59.6 µM [cytotoxic, partial curve, poor fit]"
Cc1ccc2ccc3cccc4ccc1c2c34,–,"inconclusive: 66.8 µM [cytotoxic, partial curve, poor fit]"
CCCCCCCCC1CO1 (centres undefined),inactive: -8.11%,–
CC(=O)CC(=O)Nc1ccccc1,inactive: -24.2%,–

# From PubChem BioAssay (NCATS)
